# Over roughly 110,000 compounds, “z-score” has its median near -0.1; the highest 2% begin near 2. This is one part of the list. Activity calls are given as the source filed them.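 How the source made its calls: active means z-score in the third read window above 3 or below -3; inactive means the rest.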
# Biological target: Metabotropic glutamate receptor 8 (Rattus norvegicus) (UniProt P70579)
# Experiment: rat mGluR8 modulators via GIRK flux, primary screen, cell-based, thallium flux, HTS (AID 488969)
# Conditions: HEK293 rat mGluR8, GIRK (G protein-gated inwardly rectifying potassium channel) thallium flux, FluoZin2; at 10 µM; stronger effect = higher value; submaximal glutamate (EC20) added with thallium
# Sequence of UniProt P70579 (P70579 whole entry, looked up): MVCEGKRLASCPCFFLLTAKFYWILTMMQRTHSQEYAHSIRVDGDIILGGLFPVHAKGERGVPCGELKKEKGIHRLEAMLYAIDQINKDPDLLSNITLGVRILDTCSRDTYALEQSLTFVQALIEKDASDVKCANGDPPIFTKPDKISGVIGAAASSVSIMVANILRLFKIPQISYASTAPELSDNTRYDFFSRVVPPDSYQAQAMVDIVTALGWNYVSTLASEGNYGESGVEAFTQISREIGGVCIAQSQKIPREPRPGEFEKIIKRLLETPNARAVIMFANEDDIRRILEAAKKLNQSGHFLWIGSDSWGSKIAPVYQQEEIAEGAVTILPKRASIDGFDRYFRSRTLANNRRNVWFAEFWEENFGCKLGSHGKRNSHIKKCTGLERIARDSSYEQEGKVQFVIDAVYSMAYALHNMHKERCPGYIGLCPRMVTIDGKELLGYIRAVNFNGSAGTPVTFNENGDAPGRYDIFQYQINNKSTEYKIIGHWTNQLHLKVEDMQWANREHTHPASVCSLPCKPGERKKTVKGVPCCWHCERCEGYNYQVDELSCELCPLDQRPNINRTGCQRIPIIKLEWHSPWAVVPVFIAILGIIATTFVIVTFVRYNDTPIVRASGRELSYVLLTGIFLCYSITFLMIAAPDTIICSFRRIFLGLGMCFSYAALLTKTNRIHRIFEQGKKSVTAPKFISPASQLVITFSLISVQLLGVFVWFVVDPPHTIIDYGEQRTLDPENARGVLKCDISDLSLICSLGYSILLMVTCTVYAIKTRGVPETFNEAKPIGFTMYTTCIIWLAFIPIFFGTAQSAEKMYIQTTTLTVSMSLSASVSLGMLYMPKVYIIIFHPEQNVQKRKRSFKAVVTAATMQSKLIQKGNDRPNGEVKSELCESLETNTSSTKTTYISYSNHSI
row,SMILES,z-score
1,Cc1ccc(N2CCN(/N=C/c3cccs3)CC2)cc1,-0.187
2,Cc1nnc(-c2ccccc2)nc1N1CCOCC1,-0.169
3,CCN(CCCNC(=O)C1CCN(S(=O)(=O)c2c(C)[nH]c(=O)[nH]c2=O)CC1)c1cccc(C)c1,-0.377
4,Cn1c(SCC(=O)N(Cc2ccccc2)C(C)(C)C)nc2ccccc21,-0.559
5,CCOc1ccc(C2N(c3ccc(Cl)cc3)C(=O)C3CCCN32)cc1OC (stereo not given),0.00447
6,COc1cc(C(=O)N/N=C(\c2ccccc2)c2ccccn2)cc(OC)c1OC,-0.945
7,COc1ccc2nc(N=Nc3ccc(O)c4ccccc34)sc2c1,active: 5.85
8,O=C(c1ccccc1F)N1CCN=C1SCc1cccnc1,0.643
9,COc1ccc(NC(=O)c2onc(C)c2Cl)cc1OC,0.0673
10,CCOC(=O)COc1ccccc1/C=C\[N+](=O)[O-],0.0266
11,COc1ccc(CCNC(=O)c2cc(-c3ccccc3O)n[nH]2)cc1OC,0.21
12,CCC(C)NC(=O)c1cnn2c1NC(c1cccs1)CC2C(F)(F)F (stereo not given),-0.275
13,Cc1cccc(-n2cc(-c3ccc([N+](=O)[O-])cc3)[nH]c2=S)c1,0.401
14,COCC(C)n1c(C)cc(C(=O)COC(=O)c2ccc3ncsc3c2)c1C (stereo not given),0.781
15,Cc1cccc(C)c1NC(=O)CN1CCNCC1,-0.129
16,CCCN1C(=O)SC(CC(=O)Nc2ccc(C)cc2)C1=O (stereo not given),-0.133
17,Cc1oc2nc(SCC(=O)NCc3cccnc3)nc(N)c2c1C,-0.19
18,CC1=C(C(=O)Nc2ccccc2F)C(c2ccsc2)C2=C(CC(c3ccccc3)CC2=O)N1 (stereo not given),-0.668
19,Cc1ccccc1C(=O)NCCN=C1NS(=O)(=O)c2ccccc21,0.074
20,Cc1cc(NC(=O)c2cccc(S(=O)(=O)N3CCOCC3)c2)no1,0.48
21,CCOC(=O)/C(=C\c1ccccc1)C(=O)c1cc(C(C)=O)c(Nc2ccccc2)s1,0.101
22,CCn1c(CNC(=O)c2cccc(C)c2)nnc1SCC(=O)Nc1cccc(OC)c1,-0.317

row,SMILES,z-score
1,CCOc1ccc(OCCOc2cccc(C(F)(F)F)c2)cc1,0.0766
2,CCOP(=O)(c1ccc(N(C)C)cc1)C(O)c1ccccc1 (stereo not given),-0.244
3,CCOC(=O)C1=C(C)N=C2c3ccccc3C(=O)C2C1c1ccc(C)cc1 (stereo not given),-0.307
4,COc1ccc(-n2nnnc2SCC(=O)Nc2ccccc2)cc1,0.0622
5,COC(=O)C1=C(C)NC(=O)/C1=C\c1cccs1,-0.512
6,COc1ccc(NC(=O)C2CCCN(S(=O)(=O)c3cccc4cccnc34)C2)cc1 (stereo not given),0.0102
7,O=C(NCc1cccs1)C1CC(=O)N(c2ccccc2)C1 (stereo not given),-0.0578
8,CC1(C)CC(=O)c2cnc(NCC3CCCO3)nc2C1 (stereo not given),0.214
9,O=C(CN1CCN(c2nc(-c3ccc(F)cc3)cs2)CC1)NCc1ccc2c(c1)OCO2,0.0308
10,COCCOC(=O)c1[nH]c2c(c1C)C(=O)CC(c1ccc(N(C)C)cc1)C2 (stereo not given),0.0502
11,COc1ccc(N2C(=O)CCC(C(=O)N3CCCCCC3)C2c2ccc(OC)c(OC)c2)cc1 (stereo not given),0.685
12,CCOC(=O)c1cccnc1SCc1cc(=O)n2ccccc2n1,-0.211
13,CC(C)N1C(=O)CC(Nc2ccc(N3CCOCC3)cc2)C1=O (stereo not given),0.261
14,COc1ccc(OC)c(/C=C(\NC(=O)c2ccccc2)C(=O)N/N=C/c2ccc(C)s2)c1,-0.239
15,Cc1cccc(C(=O)NCCc2csc(C)n2)c1,-0.0815
16,O=C(NCc1ccccc1F)c1ccc2c(c1)OCO2,0.15
17,COc1ccc(S(=O)(=O)N(CC(=O)N2CCOCC2)Cc2ccccc2)cc1C,-0.504
18,COc1cccc(C2CC(c3ccccc3)n3ncnc3N2)c1 (stereo not given),0.237
19,COCCN(CC(=O)NCC1CCCO1)C(=O)CCC(=O)Nc1cc(C)ccn1 (stereo not given),0.675
20,O=C(COC(=O)c1ccccc1)Nc1ccccc1N1CCOCC1,0.114
21,O=C(COC(=O)Cc1ccsc1)NC1CCCCCC1,0.353
22,CC(=O)c1nn(-c2cccc(Br)c2)cc1C(=O)c1ccccc1,-0.259

row,SMILES,z-score
1,COc1ccccc1C1=NN(C(=S)Nc2ccccc2)C(c2ccco2)C1 (stereo not given),-0.27
2,Cc1c(C(=O)NC2CCCc3ccccc32)oc2ccccc12 (stereo not given),-0.0744
3,O=C(Cc1cccs1)N/N=C/c1ccc(OCc2ccccc2)cc1,0.365
4,CCOc1ccccc1NC(=O)c1c(Br)cnn1C,-0.0887
5,ON1C(c2ccc(Cl)cc2Cl)N(O)[C@H]2CCCC[C@H]21 (stereo not given in full),0.214
6,O=C(/C=C/c1ccccc1)N/C(=C/c1ccccc1)C(=O)NCCO,-0.124
7,CCc1nc(SCC(=O)N2CCN(c3ccccc3)CC2)c2oc3ccccc3c2n1,-0.331
8,Nc1c(C(=O)Nc2ccc3c(c2)OCCO3)nnn1CCc1ccccc1,-0.72
9,Cc1[nH]c2ccc3ncccc3c2c1C,0.0252
10,O=C(Cc1ccccc1)NC(Nc1ccccc1)C(Cl)(Cl)Cl (stereo not given),-0.189
11,O=C(Cn1c(NCCO)nc2ccccc21)c1ccco1,-0.133
12,Cc1cccc(C)c1NC(=O)C1C2C=CC(C2)C1C(=O)NCc1ccccn1 (stereo not given),-0.206
13,COc1ccc(OC)c(C2C3=C(CCCC3=O)Nc3nnnn32)c1 (stereo not given),-0.152
14,NC(=O)c1c(NC(=O)CN2CCOCC2)sc2c1CCC2,0.0462
15,C/C(=C\C(=O)c1ccccc1)Nc1ccc(Cl)c(Br)c1,-0.178
16,CCC(C)Nc1nc2c(c(=O)[nH]c(=O)n2C)n1CCC(C)C (stereo not given),-0.271
17,O=C(C1CCC1)N1CCc2cc(S(=O)(=O)NCc3ccccn3)ccc21,0.3
18,CN1CCN(C=NC2=NN(c3cccc(C(F)(F)F)c3)CC2)CC1,-0.275
19,CC(=O)c1cc2c(cc1NC(=O)C1CC1)OCO2,1.2
20,CC(NS(C)(=O)=O)C(c1cccs1)N1CCN(c2ccccc2)CC1 (stereo not given),-0.211
21,Cc1c(C)c2cc(Cl)c(O)c(CN3CCCC(C)C3)c2oc1=O (stereo not given),-0.783
22,CCN(CC)S(=O)(=O)c1ccc(O)c(C(=O)OCC(=O)N(C)Cc2ccccc2)c1,0.101

row,SMILES,z-score
1,COc1ccc(C(=O)Nc2ccccc2C(=O)NC(Cc2ccc(O)cc2)C(=O)NNC(=O)c2ccccc2)cc1 (stereo not given),-0.0526
2,COc1ccc(Cn2c(O)cc(=O)[nH]c2=O)cc1,0.277
3,N#CCN1CCN(CCC(=O)Nc2ccc(OCc3ccccc3)cc2)CC1,0.324
4,Cc1[nH]ccc(=O)c1OCc1ccc(Cl)cc1,-0.133
5,CC(=O)N/C(=C\c1ccccc1)C(=O)OCC(=O)N1CCCCCC1,0.062
6,O=S(=O)(Nc1ccc(N2CCOCC2)cc1)c1ccc2ccccc2c1,0.236
7,O=C(Nc1cccc2ccccc12)/C(=C/c1ccc([N+](=O)[O-])cc1)NC(=O)c1ccccc1,0.106
8,O=C(CS(=O)c1ccc(C(F)(F)F)cc1[N+](=O)[O-])Oc1ccc(Cl)cc1 (stereo not given),0.0797
9,CC1Cc2ccccc2N1C(=O)CSc1nc2c(c(=O)n(C)c(=O)n2C)n1Cc1ccccc1 (stereo not given),-1.16
10,CCCn1c(=O)c2c(C(F)(F)F)cc(-c3cccs3)nc2n(CCC)c1=O,-0.264
11,Cc1ccc(NS(=O)(=O)c2cc(NC(=O)c3cc4c(s3)CCCC4)ccc2C)c(C)c1,-0.0232
12,CCS(=O)(=O)C(=C1NCCO1)S(=O)(=O)CC,-0.145
13,Cc1cc(N)n(-c2nc(-c3cccnc3)nc3ccccc23)n1,-0.496
14,COc1ccccc1NS(=O)(=O)c1cccc(N=C2N=C(N)c3ccccc32)c1,-0.673
15,CC(C)(C)OC(=O)N1CCC[C@H]1c1nnc(SCc2c(F)cccc2Cl)o1,0.0657
16,CCOc1cc(/C=C2\N=C(C)OC2=O)cc(Br)c1OCC(=O)OC,-0.0313
17,O=C(NCc1cccnc1)c1ccc(COc2ccccc2Br)o1,-0.856
18,Cc1ccc(N2C(=O)c3cccc4c(Oc5ccccc5[N+](=O)[O-])ccc(c34)C2=O)c(C)c1,0.169
19,CC1=NN(c2ccccc2)C(=O)C1(C)C,-0.362
20,O=C(NCc1ccccc1)C(Cc1ccccc1)NS(=O)(=O)c1cccc2nsnc12 (stereo not given),-0.095
21,CCOc1ccc2nc(SC3CC(=O)N(c4ccc(C)cc4)C3=O)sc2c1 (stereo not given),0.0229
22,COC(=O)c1c(-c2ccc(Br)cc2)csc1NC(=O)Cc1ccc(OC)c(OC)c1,-0.0487

row,SMILES,z-score
1,COc1ccc(C(=O)NNC(=O)Cc2ccc(-c3ccccc3)cc2)cc1OC,0.639
2,O=C(NCC1CCCO1)c1sc(=S)n2c1[nH]c(=O)c1ccc(C(=O)N3CCCCC3)cc12 (stereo not given),-0.851
3,O=C(CCCn1c(=S)[nH]c2ccccc2c1=O)N1CCN(c2cccc(Cl)c2)CC1,0.104
4,COC(=O)c1ccc(COc2ccccc2/C=C(\C#N)C(=O)NC(C)C)cc1,-0.308
5,CCCCNC(=O)CCn1c(=O)c2ccccc2n(CC(=O)N2CC(C)CC(C)C2)c1=O (stereo not given),-0.218
6,Cc1cc(C)n(CC(O)Cn2c(C)c(C)c3ccccc32)n1 (stereo not given),0.166
7,CCN1CCN(C(=O)c2ccc(COc3ccc(Cl)cc3)o2)CC1,0.356
8,Cc1ccn2c(NCc3ccc4c(c3)OCO4)c(-c3ccc(O)cc3)nc2c1,-0.00285
9,CC1Cc2ccccc2N1c1nc(C2CC2)nc2c1nnn2Cc1ccccc1 (stereo not given),-0.314
10,C=CCN(C(=O)c1cccc(S(=O)(=O)N2CCN(C)CC2)c1)c1nc(-c2ccccc2)cs1,-0.229
11,O=C(CSc1nnc(-c2ccncc2)n1Cc1ccco1)OC1CCCCC1,-0.368
12,Cc1ccc(C(=O)Nc2cccc(Oc3ccccc3)c2)o1,-1.41
13,Cc1csc(NC(=O)CSc2ncn(-c3ccccc3)n2)n1,-0.32
14,Cc1ccc(OCCn2cnc3c(N)ncnc32)cc1,0.645
15,c1ccc(-c2noc(-c3cccnc3)n2)cc1,-0.191
16,CCOc1cc(N2CCOCC2)c(OCC)cc1NC(=O)Cc1cccc2ccccc12,-0.178
17,Cc1ccccc1OCC(=O)NCCN(C)C,-0.273
18,O=C1C2Sc3[nH]c(=O)sc3C(c3ccccc3)C2C(=O)N1c1ccccc1 (stereo not given),0.0602
19,COc1ccc2c(c1)Cc1sc(NC(=O)c3ccco3)nc1-2,0.0215
20,COC(=O)c1ccc2nc(Nc3nc4c(F)cc(F)cc4s3)sc2c1,1.56
21,COc1ccc(NC(=O)CC(NCCc2ccccc2)C(=O)O)c(OC)c1 (stereo not given),-0.56
22,COc1ccc(C(=O)Nc2ccc(Cl)cc2C(=O)NCc2ccco2)cc1,-0.479

# — PubChem BioAssay AID488969 (Vanderbilt High Throughput Screening Facility, 2010)
